± gives the standard deviation of the averaged measurements. The list shows a part of the results.
System: PfAP2-I AP2 domain 3 (GST-tagged)
Assay: gcPBM binding intensity (ln(normalized median fluorescence intensity)); higher = stronger DNA binding
Outline: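 After 1 h on an Agilent 4 × 180k array of primer-extended double-stranded 36-bp intergenic genomic probes and negative controls, bound GST-tagged P. falciparum DNA-binding domains were detected with Alexa488 anti-GST antibody and scanned at 488 nm. The domains had been expressed in E. coli, and binding took place in 1× PBS with 1% milk, 0.2 mg/ml BSA, 0.5% salmon testes DNA and 0.03% Triton X-100. Binding intensity is the highest Masliner-normalised natural-log median intensity across replicate spots of either probe orientation.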

Row | Sequence | gcPBM binding intensity (ln)
1 | AATATTTTCTGTAATACTTCTTTTCAATTTATTTCG [CACACA_negctrl_site1390] | 7.67 ± 0.71
2 | AATATCAATGATGTTACATGCAAGAGAATCCACAAA [TGCATGCA_site678] | 8.3 ± 0.79
3 | TATTGTTTTTTTGATTTTTTTTTTTTTTTTAATGAA [CACACA_negctrl_site824] | 7.43 ± 0.6
4 | ACGTAAAATTATTATTGTACATGTAAATAATTTGGA [XGTACX_site8154] | 7.74 ± 0.34
5 | AAAATCAAAAAAACAAGTACAAATGTGGACTTTTTT [XGTACX_site5363] | 7.64 ± 0.58
6 | TGTTCTATGGTTTGTAGTACTTTAATAAATATAAAT [XGTACX_site7823] | 7.9 ± 0.31
7 | TCAAAAAAAAAAAAAAAAAAAAAAAAAAAAAAAAAA [CACACA_negctrl_site1753] | 8.54 ± 1
8 | AATAAGCTCACGTGTCGTACATTTTTTAAAACAACC [XGTACX_site4707] | 8.05 ± 0.45
9 | TATATATATATATATGTGCACTGAAAGAATTATACA [GTGCAC_site9586] | 10.7 ± 0.13
10 | GCTCAATTTTTGGGTACACACAAATGTATAAGAATA [CACACA_site7178] | 8.15 ± 0.17
11 | TTTTTCTAATTATGCACACATATCAAAATATTCAAT [CACACA_site2749] | 10.4 ± 0.58
12 | TATTTATTTTATATATGTACATAATATATTCTTATA [XGTACX_site1619] | 7.81 ± 0.28
13 | ATATATATAGAAATATGTACGAAAAAAATATCACAT [XGTACX_site746] | 8.44 ± 0.81
14 | ATTTATGGAAAAAGAACACACAATCAAACAAAAATA [CACACA_site3707] | 8.01 ± 0.57
15 | TTTTTTTTTTTTTGGTGTACCATAGGTAAAATGATT [XGTACX_site8020] | 8.27 ± 0.59
16 | ATATAAATGAATATATGTACATATATATATATATAT [XGTACX_site6361] | 9.12 ± 0.52
17 | TGACCTGTTCAGGTAACACACATATAAACCCATACA [CACACA_site31] | 7.88 ± 0.43
18 | ATGCTATAGGATCTTACACACATTTTTGTAAAAAAA [CACACA_site1868] | 7.79 ± 0.52
19 | ACACAATAAACATTATGTACATATAATGTTCTGTGT [XGTACX_site3381] | 7.54 ± 0.49

Row | Sequence | gcPBM binding intensity (ln)
20 | AATGATAATCTATTATGTACACATATATTCTTATGT [XGTACX_site4148] | 7.54 ± 0.3
21 | CTATATATAAAATATTGTACTTATTTTTATTACATC [XGTACX_site3963] | 7.72 ± 0.46
22 | TATACATATGTATGCACACATACATACCCATATAAT [CACACA_site5842] | 8.79 ± 0.014
23 | TATTTAAAATATTAAATTTGTAAAGTTCGAGGGAAG [GTGCAC_negctrl_site337] | 7.83 ± 0.33
24 | TTTTCTCAATTTTGGTGTACTTTTTTCTTAACACAT [XGTACX_site8918] | 8.15 ± 0.48
25 | GAAAAAAAAATATCTTGTACTTACATAACTATTGGT [XGTACX_site5326] | 7.61 ± 0.5
26 | AAAGGTTTATCTGATACACACATAAGTGATCAGGTT [CACACA_site6233] | 7.44 ± 0.67
27 | TAAATTAAAAAACATAAACTATTGGAAACGCATTGA [CACACA_negctrl_site935] | 7.57 ± 0.64
28 | GGAATAGTGATATATACACACAAATACATATTTATA [CACACA_site6183] | 7.87 ± 0.68
29 | AATTAATAAGAAAGGTGTACAGAAAAAAAAAAATAT [XGTACX_site2106] | 8.46 ± 0.43
30 | AAAAGAAATGACAAATTGGATAGATAATAGGGGGTA [GTGCAC_negctrl_site262] | 8.12 ± 0.57
31 | AATTTTGATATATATTGTACGCATTTTTAAATGCCA [XGTACX_site7694] | 8.17 ± 0.44
32 | TTTAATAAAATTCTAGTGCAAAAAGGAAAAAACAAA [GTGCAC_site9642] | 10.4 ± 0.47
33 | AAAAAAAAAAAAAATACACACATATATAAATAAATA [CACACA_site6459] | 8.09 ± 0.46
34 | TTCTTAATTTAAAATTGTACTTAAGTAATACTTATG [XGTACX_site3928] | 7.68 ± 0.52
35 | GAAGTTTTTTAAAGATGTACTTTTTAAAAATAATGT [XGTACX_site1975] | 7.93 ± 0.37
36 | TTATTTACTTATTGCACACATATAAAATATATTTAT [CACACA_site3101] | 10.6 ± 0.76
37 | ATAATAAAACTCAAAGTGCATTAGAATAATTGTAAA | 10.7 ± 0.49
38 | ATTCATAAATATATTTGTACATATTATATATAAATA [XGTACX_site1907] | 7.85 ± 0.31

Row | Sequence | gcPBM binding intensity (ln)
39 | AAGAACTCATTAATAATGTAATATTTTATAATTTAG [CACACA_negctrl_site321] | 7.13 ± 0.5
40 | TACAATTGTAAAGGCGCACACATATATATATATATA [CACACA_site1392] | 9.51 ± 0.13
41 | GATATTATTGCATATTTACACACGTACTAATTTAAA [CACACA_site8231] | 8.8 ± 0.47
42 | TTTTTATAATAAAAAAATATAACTATATTAAGCCAC [CACACA_negctrl_site555] | 8.23 ± 0.31
43 | TAATATATAACGTGCACACACACATTTACGTATGAA [CACACA_site1832] | 10.86 ± 0.064
44 | AGCACCCACCAACACACACACACACCCACCCACCCA [CACACA_site8011] | 8.86 ± 0.7
45 | TATACATATTTCTATTGTACATAAACTAAATCTTCA [XGTACX_site28] | 7.49 ± 0.41
46 | ACAATAAATATGTGGTTGCACTTATAATATATTTAT | 8.66 ± 0.4
47 | TATTTTTATCAATTCACACATAAATATATTTATATG [CACACA_site5547] | 7.76 ± 0.37
48 | CACAGTGATATAAAAACACACATGAATTAAAATTTC [CACACA_site4999] | 7.41 ± 0.65
49 | TCCCTTAATTTTGTGTGTACATATAATATATTTTTA [XGTACX_site2789] | 7.98 ± 0.42
50 | GTTAATTATTAAATTTGTACTCATATATATTATATA [XGTACX_site6862] | 7.89 ± 0.46
51 | CATACATACAGACACACACACATATTTATATTTATA [CACACA_site6172] | 8 ± 0.33
52 | TTTTTTTTTTAATTAACACACATAAATATAAATATA [CACACA_site7527] | 7.95 ± 0.49
53 | AAAAAAAAAAAAAAAAGTACATATGCTCAAGAGATG [XGTACX_site3783] | 8.7 ± 0.42
54 | TAATATTGACTATATACACACATATAAATATAAATA [CACACA_site6414] | 7.54 ± 0.4
55 | TATATATATATATATACATGCATCATTGTTCACCTT [TGCATGCA_site177] | 9.34 ± 0.24
56 | CATTCAAAGAAAAACAGTACGTGTAGCAAAAGGCCT [XGTACX_site266] | 8.03 ± 0.73
57 | TAAATAATATAATTATGTACGTATTTCTTTATTTTA [XGTACX_site8410] | 7.69 ± 0.099

Source: the supplement of paper PMC11417369
